No constants are given. Whether binding was seen depends on the method and setting. Binding seen in cells or lysates may run through a third protein. Some results given as binding are weak or reduced against the parent protein; the word gives no strength. For some assays here: Where a sequence is shown, tags or fusion partners need not be part of it.

Amino acid sequences for entries named in this document (tags omitted).
UniProt Q923J1: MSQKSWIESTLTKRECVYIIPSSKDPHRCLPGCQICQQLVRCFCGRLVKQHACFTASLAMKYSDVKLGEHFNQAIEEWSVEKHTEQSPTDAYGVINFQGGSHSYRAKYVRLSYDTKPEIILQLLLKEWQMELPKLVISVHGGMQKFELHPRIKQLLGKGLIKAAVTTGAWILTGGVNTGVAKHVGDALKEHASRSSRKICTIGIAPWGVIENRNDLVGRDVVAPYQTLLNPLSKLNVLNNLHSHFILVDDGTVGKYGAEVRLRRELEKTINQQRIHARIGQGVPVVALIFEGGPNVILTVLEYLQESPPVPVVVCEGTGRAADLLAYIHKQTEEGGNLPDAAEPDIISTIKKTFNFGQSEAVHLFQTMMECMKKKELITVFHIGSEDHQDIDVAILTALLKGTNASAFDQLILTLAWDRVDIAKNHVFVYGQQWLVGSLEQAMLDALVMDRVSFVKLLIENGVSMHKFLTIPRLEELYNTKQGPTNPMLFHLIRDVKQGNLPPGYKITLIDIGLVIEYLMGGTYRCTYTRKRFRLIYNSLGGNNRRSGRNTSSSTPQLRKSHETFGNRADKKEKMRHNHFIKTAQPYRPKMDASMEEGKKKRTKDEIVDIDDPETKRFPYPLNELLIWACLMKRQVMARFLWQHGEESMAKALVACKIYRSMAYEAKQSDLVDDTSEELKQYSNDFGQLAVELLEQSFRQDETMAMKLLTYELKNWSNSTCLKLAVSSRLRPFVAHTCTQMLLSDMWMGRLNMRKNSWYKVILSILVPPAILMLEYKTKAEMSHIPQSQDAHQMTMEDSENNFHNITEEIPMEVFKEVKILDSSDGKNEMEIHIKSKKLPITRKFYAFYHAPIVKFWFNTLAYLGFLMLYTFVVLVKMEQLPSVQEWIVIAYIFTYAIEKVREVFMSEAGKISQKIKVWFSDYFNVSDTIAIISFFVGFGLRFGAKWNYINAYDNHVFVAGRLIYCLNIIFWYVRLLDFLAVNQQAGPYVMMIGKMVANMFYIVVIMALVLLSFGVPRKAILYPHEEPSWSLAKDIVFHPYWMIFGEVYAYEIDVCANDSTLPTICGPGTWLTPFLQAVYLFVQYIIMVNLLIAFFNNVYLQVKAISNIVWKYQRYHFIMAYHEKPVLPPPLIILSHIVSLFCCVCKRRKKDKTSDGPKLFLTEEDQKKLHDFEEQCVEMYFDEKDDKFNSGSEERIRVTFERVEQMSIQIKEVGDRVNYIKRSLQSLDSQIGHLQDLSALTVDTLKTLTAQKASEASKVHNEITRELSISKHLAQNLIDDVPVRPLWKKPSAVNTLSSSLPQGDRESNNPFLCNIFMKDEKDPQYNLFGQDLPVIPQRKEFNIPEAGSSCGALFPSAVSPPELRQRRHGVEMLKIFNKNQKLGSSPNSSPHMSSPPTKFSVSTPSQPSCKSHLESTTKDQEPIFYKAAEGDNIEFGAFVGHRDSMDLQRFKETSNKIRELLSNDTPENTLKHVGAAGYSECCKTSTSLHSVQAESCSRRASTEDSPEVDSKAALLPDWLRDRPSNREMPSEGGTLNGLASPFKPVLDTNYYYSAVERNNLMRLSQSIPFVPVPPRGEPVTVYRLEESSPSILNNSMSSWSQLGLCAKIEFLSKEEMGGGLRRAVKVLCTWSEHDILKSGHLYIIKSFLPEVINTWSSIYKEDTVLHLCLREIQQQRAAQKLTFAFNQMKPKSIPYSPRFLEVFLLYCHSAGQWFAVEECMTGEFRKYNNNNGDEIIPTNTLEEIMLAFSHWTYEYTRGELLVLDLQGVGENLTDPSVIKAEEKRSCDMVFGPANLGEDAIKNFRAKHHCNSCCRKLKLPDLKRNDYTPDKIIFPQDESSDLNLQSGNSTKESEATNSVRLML
UniProt Q9BX84: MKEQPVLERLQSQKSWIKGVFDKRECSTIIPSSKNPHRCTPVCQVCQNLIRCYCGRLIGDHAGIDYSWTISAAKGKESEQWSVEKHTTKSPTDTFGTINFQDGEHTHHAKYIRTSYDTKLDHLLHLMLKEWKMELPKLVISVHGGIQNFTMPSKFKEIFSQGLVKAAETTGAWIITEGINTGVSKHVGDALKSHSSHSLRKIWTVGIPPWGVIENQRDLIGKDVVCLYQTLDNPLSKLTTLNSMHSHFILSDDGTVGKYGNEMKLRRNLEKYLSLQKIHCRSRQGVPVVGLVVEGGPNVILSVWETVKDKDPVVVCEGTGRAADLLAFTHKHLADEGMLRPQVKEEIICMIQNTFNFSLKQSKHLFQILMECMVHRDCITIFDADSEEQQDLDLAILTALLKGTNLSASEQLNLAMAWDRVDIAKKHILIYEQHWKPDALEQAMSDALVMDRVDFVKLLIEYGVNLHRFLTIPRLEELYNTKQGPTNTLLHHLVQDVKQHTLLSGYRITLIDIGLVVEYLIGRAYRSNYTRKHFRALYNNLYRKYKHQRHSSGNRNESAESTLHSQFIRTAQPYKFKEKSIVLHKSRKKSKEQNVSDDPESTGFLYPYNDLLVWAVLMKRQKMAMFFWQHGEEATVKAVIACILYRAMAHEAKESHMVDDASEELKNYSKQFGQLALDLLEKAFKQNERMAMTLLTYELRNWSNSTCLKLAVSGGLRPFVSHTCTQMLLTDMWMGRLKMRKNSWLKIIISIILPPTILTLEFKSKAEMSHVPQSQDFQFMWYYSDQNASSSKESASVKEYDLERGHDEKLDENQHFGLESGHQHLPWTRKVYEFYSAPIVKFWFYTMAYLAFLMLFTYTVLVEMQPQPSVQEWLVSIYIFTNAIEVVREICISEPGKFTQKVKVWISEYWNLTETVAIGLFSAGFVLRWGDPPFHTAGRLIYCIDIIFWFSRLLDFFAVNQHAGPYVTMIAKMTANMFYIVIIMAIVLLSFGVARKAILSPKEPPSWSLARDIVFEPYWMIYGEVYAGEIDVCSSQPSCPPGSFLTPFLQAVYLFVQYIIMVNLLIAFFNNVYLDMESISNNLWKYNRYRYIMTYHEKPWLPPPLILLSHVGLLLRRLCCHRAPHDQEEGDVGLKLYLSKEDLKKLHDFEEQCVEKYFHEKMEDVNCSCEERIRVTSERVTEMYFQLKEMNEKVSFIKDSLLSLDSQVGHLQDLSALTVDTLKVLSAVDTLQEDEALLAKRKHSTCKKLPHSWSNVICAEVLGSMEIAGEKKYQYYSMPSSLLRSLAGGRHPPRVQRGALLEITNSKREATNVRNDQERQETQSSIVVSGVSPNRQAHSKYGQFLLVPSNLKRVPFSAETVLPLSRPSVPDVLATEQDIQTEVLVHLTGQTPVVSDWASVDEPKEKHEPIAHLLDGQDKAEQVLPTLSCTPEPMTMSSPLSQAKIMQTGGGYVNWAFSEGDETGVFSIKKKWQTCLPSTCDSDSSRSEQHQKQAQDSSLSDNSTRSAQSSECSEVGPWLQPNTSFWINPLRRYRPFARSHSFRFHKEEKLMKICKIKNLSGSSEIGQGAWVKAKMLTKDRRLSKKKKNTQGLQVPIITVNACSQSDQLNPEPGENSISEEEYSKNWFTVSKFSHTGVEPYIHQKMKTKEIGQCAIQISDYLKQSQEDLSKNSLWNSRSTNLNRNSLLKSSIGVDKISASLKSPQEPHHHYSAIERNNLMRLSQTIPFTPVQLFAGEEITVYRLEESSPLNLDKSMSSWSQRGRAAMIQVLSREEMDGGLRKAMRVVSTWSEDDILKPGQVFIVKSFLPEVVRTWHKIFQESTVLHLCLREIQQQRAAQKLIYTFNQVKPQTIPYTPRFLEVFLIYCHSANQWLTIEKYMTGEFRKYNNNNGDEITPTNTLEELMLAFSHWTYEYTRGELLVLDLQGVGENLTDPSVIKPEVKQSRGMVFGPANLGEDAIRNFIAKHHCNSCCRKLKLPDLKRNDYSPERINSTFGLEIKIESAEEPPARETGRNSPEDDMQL
UniProt Q9NRU3: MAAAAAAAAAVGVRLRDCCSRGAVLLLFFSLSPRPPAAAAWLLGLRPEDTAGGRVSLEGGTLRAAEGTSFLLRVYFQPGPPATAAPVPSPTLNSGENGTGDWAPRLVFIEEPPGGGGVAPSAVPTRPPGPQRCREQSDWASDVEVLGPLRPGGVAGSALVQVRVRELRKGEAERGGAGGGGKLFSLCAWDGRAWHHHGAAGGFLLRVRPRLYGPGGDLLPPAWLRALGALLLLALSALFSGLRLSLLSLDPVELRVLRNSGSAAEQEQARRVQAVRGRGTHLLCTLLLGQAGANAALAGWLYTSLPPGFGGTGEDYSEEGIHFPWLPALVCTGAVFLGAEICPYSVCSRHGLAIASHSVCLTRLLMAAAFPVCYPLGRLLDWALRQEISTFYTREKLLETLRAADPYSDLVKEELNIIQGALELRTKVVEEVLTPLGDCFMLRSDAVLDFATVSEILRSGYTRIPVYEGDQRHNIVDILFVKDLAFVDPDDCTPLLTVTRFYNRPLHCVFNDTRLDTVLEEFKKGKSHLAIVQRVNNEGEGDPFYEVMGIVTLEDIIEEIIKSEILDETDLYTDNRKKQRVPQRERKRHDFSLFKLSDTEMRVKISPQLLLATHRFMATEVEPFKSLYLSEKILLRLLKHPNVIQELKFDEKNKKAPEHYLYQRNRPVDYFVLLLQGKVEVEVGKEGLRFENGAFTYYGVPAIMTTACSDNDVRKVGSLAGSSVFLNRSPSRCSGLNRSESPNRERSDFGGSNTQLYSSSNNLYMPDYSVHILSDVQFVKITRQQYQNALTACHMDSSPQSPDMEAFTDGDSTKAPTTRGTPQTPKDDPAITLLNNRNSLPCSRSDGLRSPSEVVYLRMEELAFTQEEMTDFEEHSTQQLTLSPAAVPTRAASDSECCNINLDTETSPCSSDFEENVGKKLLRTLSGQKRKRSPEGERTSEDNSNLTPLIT

This is an account of results in article PMC8726484.

Assay [1] addresses T1, FLAG-tagged human CNNM4 (pCMV-4A) (human) (UniProt Q6P4Q7).
T1 sequence: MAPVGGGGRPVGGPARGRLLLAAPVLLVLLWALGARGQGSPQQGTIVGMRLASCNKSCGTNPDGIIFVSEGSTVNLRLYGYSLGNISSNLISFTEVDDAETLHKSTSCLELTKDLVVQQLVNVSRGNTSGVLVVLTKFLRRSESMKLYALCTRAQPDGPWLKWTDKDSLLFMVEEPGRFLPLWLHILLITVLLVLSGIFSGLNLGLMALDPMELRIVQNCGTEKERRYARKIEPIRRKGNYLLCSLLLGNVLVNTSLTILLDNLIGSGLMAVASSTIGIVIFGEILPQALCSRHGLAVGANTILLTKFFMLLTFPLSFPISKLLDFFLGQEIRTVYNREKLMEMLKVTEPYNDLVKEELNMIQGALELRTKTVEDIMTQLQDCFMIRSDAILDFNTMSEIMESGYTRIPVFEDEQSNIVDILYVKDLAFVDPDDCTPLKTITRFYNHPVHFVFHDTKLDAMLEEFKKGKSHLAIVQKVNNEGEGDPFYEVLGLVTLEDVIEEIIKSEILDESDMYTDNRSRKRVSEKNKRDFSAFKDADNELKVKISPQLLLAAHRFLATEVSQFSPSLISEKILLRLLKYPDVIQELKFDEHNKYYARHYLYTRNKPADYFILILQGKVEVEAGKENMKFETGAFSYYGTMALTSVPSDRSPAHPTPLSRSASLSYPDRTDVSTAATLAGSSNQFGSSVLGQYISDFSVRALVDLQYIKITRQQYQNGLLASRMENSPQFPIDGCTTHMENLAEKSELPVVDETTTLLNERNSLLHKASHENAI
Kind of assay: co-IP; FLAG-CNNM isoforms individually expressed in HEK-293T cells and immunoprecipitated, blots for native CNNM isoforms (S16 Fig A-D).

Assay [2] addresses HA-tagged TRPM7 (pcDNA5-FRT-TO-HA-TRPM7) (mouse) (UniProt Q923J1). Description: co-IP; HA-tagged channel coexpressed with FLAG-tagged CNNM1-4 in HEK-293T cells, immunoprecipitated overnight with HA-agarose; lysis buffer 50 mM TRIS (pH 7.4), 150 mM NaCl, 1% Igepal 630, 4°C; growth medium with or without 20 mM MgCl2 (Fig 1A).
Assay [3] deals with HA-TRPM6 (pcDNA5-FRT-TO-HA-TRPM6) (UniProt Q9BX84). The assay is described as above.
Assay [4] concerns the target HA-tagged mouse TRPM7 expressed from the recombinant adenovirus pAd/CMV/V5-SR-TRPM7 (Ad-TRPM7-HA) (mouse) (UniProt Q923J1). Kind of assay: co-IP; HA-TRPM7 expressed in RPTEC/TERT cells by transduction with Ad-TRPM7-HA, immunoprecipitated with HA-agarose, blot for native CNNM3.

Consider “native CNNM1 (endogenous, HEK-293T) (from UniProt Q9NRU3 1-951)”, for which the binding entry in assay [1] is “binds”.

B1: FLAG-tagged human CNNM3 (pCMV-4A) (protein, UniProt Q8NE01 1-707)
chain: MAAAVAAAGRLGWLFAALCLGNAAGEAAPGPRVLGFCLEEDGAAGAGWVRGGAARDTPDATFLLRLFGPGFANSSWSWVAPEGAGCREEAASPAGEWRALLRLRLRAEAVRPHSALLAVRVEPGGGAAEEAAPPWALGLGAAGLLALAALARGLQLSALALAPAEVQVLRESGSEAERAAARRLEPARRWAGCALGALLLLASLAQAALAVLLYRAAGQRAVPAVLGSAGLVFLVGEVVPAAVSGRWTLALAPRALGLSRLAVLLTLPVALPVGQLLELAARPGRLRERVLELARGGGDPYSDLSKGVLRCRTVEDVLTPLEDCFMLDASTVLDFGVLASIMQSGHTRIPVYEEERSNIVDMLYLKDLAFVDPEDCTPLSTITRFYNHPLHFVFNDTKLDAVLEEFKRGKSHLAIVQKVNNEGEGDPFYEVLGLVTLEDVIEEIIRSEILDESEDYRDTVVKRKPASLMAPLKRKEEFSLFKVSDDEYKVTISPQLLLATQRFLSREVDVFSPLRISEKVLLHLLKHPSVNQEVRFDESNRLATHHYLYQRSQPVDYFILILQGRVEVEIGKEGLKFENGAFTYYGVSALTVPSSVHQSPVSSLQPIRHDLQPDPGDGTHSSAYCPDYTVRALSDLQLIKVTRLQYLNALLATRAQNLPQSPENTDLQVIPGSQTRLLGEKTTTAAGSSHSRPGVPVEGSPGRNPGV
For the molecule B1, the binding result in assay [2] and in assay [3] was “binds” each time.

B2: native CNNM3 of RPTEC/TERT1 cells (protein, UniProt Q8NE01 1-707)
chain: MAAAVAAAGRLGWLFAALCLGNAAGEAAPGPRVLGFCLEEDGAAGAGWVRGGAARDTPDATFLLRLFGPGFANSSWSWVAPEGAGCREEAASPAGEWRALLRLRLRAEAVRPHSALLAVRVEPGGGAAEEAAPPWALGLGAAGLLALAALARGLQLSALALAPAEVQVLRESGSEAERAAARRLEPARRWAGCALGALLLLASLAQAALAVLLYRAAGQRAVPAVLGSAGLVFLVGEVVPAAVSGRWTLALAPRALGLSRLAVLLTLPVALPVGQLLELAARPGRLRERVLELARGGGDPYSDLSKGVLRCRTVEDVLTPLEDCFMLDASTVLDFGVLASIMQSGHTRIPVYEEERSNIVDMLYLKDLAFVDPEDCTPLSTITRFYNHPLHFVFNDTKLDAVLEEFKRGKSHLAIVQKVNNEGEGDPFYEVLGLVTLEDVIEEIIRSEILDESEDYRDTVVKRKPASLMAPLKRKEEFSLFKVSDDEYKVTISPQLLLATQRFLSREVDVFSPLRISEKVLLHLLKHPSVNQEVRFDESNRLATHHYLYQRSQPVDYFILILQGRVEVEIGKEGLKFENGAFTYYGVSALTVPSSVHQSPVSSLQPIRHDLQPDPGDGTHSSAYCPDYTVRALSDLQLIKVTRLQYLNALLATRAQNLPQSPENTDLQVIPGSQTRLLGEKTTTAAGSSHSRPGVPVEGSPGRNPGV
Take B2: in assay [4], the binding result is “binds”.

B3: FLAG-tagged mouse CNNM2 (pCMV-4A) (protein, UniProt Q3TWN3 1-875)
chain: MIGCGACEPEVKMAGGQAAAALPTWKMAARRSLSARGRGVLQAAAGRLLPLLLLSCCWGAGGCTAAGENEETVIIGLRLEDTNDVSFMEGGALRVSERTRVKLRVYGQNINNETWSRIAFTEHERRRHTPSERGLGGPAPPEPDSGPQRCGIRTSDIIILPHIILNRRTSGIIEIEIKPLRKMEKSKSYYLCTSLSTPALGAGGSGSASGTVGGKGGAGVAGLPPPPWAETTWIYHDGEDTKMIVGEEKKFLLPFWLQVIFISLLLCLSGMFSGLNLGLMALDPMELRIVQNCGTEKEKNYAKRIEPVRRQGNYLLCSLLLGNVLVNTTLTILLDDIAGSGLVAVVVSTIGIVIFGEIVPQAICSRHGLAVGANTIFLTKFFMMMTFPASYPVSKLLDCVLGQEIGTVYNREKLLEMLRVTDPYNDLVKEELNIIQGALELRTKTVEDVMTPLRDCFMITGEAILDFNTMSEIMESGYTRIPVFEGERSNIVDLLFVKDLAFVDPDDCTPLKTITKFYNHPLHFVFNDTKLDAMLEEFKKGKSHLAIVQRVNNEGEGDPFYEVLGIVTLEDVIEEIIKSEILDETDLYTDNRTKKKVAHRERKQDFSAFKQTDSEMKVKISPQLLLAMHRFLATEVEAFSPSQMSEKILLRLLKHPNVIQELKYDEKNKKAPECYLYQRNKPVDYFVLILQGKVEVEAGKEGMKFEASAFSYYGVMALTASPVPLSLSRTFVVSRTEVLAAGSPGENKSPPRPCGLNHSDSLSRSDRIDAMTPTLGSSNNQLSSSFLQVYIPDYSVRALSDLQFVKISRQQYQNALMASRMDKTPQSSDSENTKIELTLTELHDGLPDETANLLNEQNCVSHNKANHSLHSEGAI
In the case of B3, the binding result in assay [2] is recorded as “binds”; in assay [3] it was “no binding”.

B4: FLAG-tagged human CNNM4 (pCMV-4A) (protein, UniProt Q6P4Q7 1-775)
chain: MAPVGGGGRPVGGPARGRLLLAAPVLLVLLWALGARGQGSPQQGTIVGMRLASCNKSCGTNPDGIIFVSEGSTVNLRLYGYSLGNISSNLISFTEVDDAETLHKSTSCLELTKDLVVQQLVNVSRGNTSGVLVVLTKFLRRSESMKLYALCTRAQPDGPWLKWTDKDSLLFMVEEPGRFLPLWLHILLITVLLVLSGIFSGLNLGLMALDPMELRIVQNCGTEKERRYARKIEPIRRKGNYLLCSLLLGNVLVNTSLTILLDNLIGSGLMAVASSTIGIVIFGEILPQALCSRHGLAVGANTILLTKFFMLLTFPLSFPISKLLDFFLGQEIRTVYNREKLMEMLKVTEPYNDLVKEELNMIQGALELRTKTVEDIMTQLQDCFMIRSDAILDFNTMSEIMESGYTRIPVFEDEQSNIVDILYVKDLAFVDPDDCTPLKTITRFYNHPVHFVFHDTKLDAMLEEFKKGKSHLAIVQKVNNEGEGDPFYEVLGLVTLEDVIEEIIKSEILDESDMYTDNRSRKRVSEKNKRDFSAFKDADNELKVKISPQLLLAAHRFLATEVSQFSPSLISEKILLRLLKYPDVIQELKFDEHNKYYARHYLYTRNKPADYFILILQGKVEVEAGKENMKFETGAFSYYGTMALTSVPSDRSPAHPTPLSRSASLSYPDRTDVSTAATLAGSSNQFGSSVLGQYISDFSVRALVDLQYIKITRQQYQNGLLASRMENSPQFPIDGCTTHMENLAEKSELPVVDETTTLLNERNSLLHKASHENAI
Regarding B4, the binding entry is “binds” in assay [2] and “no binding” in assay [3].
